The whole screen tested about 190,000 compounds, of which about 520 (0.27%) were called active. The inconclusive results got no clear call from the source; some entries with a clear call stand among them for comparison.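 The calls were made as follows: active = GTP binding activity at least 20 points away from the 100% control level, either lower or higher; inconclusive = compound flagged as likely green fluorescent, judged across all proteins; inactive = the rest.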
Molecular target: Ras-related C3 botulinum toxin substrate 1 (Homo sapiens) (UniProt P63000)
Experiment: wildtype Rac1 GTP binding modulators, primary screen, biochemical, GST-Rac1 beads, flow cytometry, multiplex (AID 757)
Details: fluorescent GTP binding, at 10 µM, actives lie on both sides, 0 = cold GTP competed, 100 = untreated

Structure (SMILES) | GTP binding activity (% of control)
CC(C)(C)c1ccccc1NC(=O)c1c(O)c2cccc3c2n(c1=O)CC3 | inactive: 99%
Cc1ccc(-c2cc(C(=O)N3CCN(c4ncccn4)CC3)c3cc(Br)ccc3n2)o1 | inactive: 99%
Cc1nnc(-c2cnn(C)c2N)n1Cc1ccccc1 | inconclusive: 109%
O=C(COC(=O)c1cccnc1Nc1cccc(C(F)(F)F)c1)NCc1ccc2c(c1)OCO2 | inconclusive: 90%
CCOc1ccc(S(=O)(=O)N(C)c2ccc(OCC(=O)Nc3nc(-c4cc(OC)ccc4OC)cs3)cc2)cc1 | inactive: 99%
O=C1NC(Cc2ccccc2)C(=O)N1CC(=O)N1CCCc2ccccc21 (stereo not drawn) | inactive: 97%
CC1=NC(=O)C(N=Nc2cccc(C(=O)O)c2)N1c1ccccc1 (stereo not drawn) | inconclusive: 95%
COc1ccc(-c2cc(-c3ccccc3)nc3ncnn23)cc1 | inconclusive: 92%
Nc1nc(N)c2sc3nc(C(F)(F)F)cc(C(F)(F)F)c3c2n1 | inconclusive: 85%
COc1ccccc1-c1ccc(SCC(=O)NCc2ccc3c(c2)OCO3)nn1 | inconclusive: 93%
Cc1ccc(Cl)c(NC(=O)CN2CCNC(=O)C2)c1Cl | inactive: 95%
Cn1ncc(C(N)=O)c1NC(=S)NC(=O)c1ccc(Br)o1 | inconclusive: 83%
COc1ccc(CCNc2cc(=O)[nH]c(N)n2)cc1 | inconclusive: 70%
COc1ccc(C(=O)Cn2c(C(=O)/C=C/c3ccccc3)nc3ccccc32)cc1 | inactive: 101%
Cc1ccc(OCC(=O)N/N=C\c2ccncc2)c(C)c1 | inactive: 102%
Cc1nccn1-c1cc(C(C)(C)C)nc2c(-c3ccccc3)cnn12 | inactive: 103%
CC(COc1ccccc1)N1CCC(CO)(Cc2ccccc2)CC1 (stereo not drawn) | inactive: 99%
O=C(Cc1ccc(Cl)cc1)NNC(=O)c1cnccn1 | inconclusive: 104%
CC(=O)OC(C)C[N+](C)(C)C (stereo not drawn) | inconclusive: 103%
O=C(COc1cc(Cl)ccc1Cl)Nc1nnc(CC(=O)N2CCOCC2)s1 | inactive: 87%
CCOC(=O)Cc1cc(=O)n2[nH]c(C)cc2n1 | inconclusive: 105%
CN=c1scc(-c2cccs2)n1/N=C/c1ccc(O)c(O)c1O | inconclusive: 97%
COc1ccc(-c2cc(C(=O)OCC(=O)c3ccc(C)c([N+](=O)[O-])c3)c3ccccc3n2)cc1 | inconclusive: 103%
Cc1ccc(Oc2ncccc2C(=O)NC2CCSC2=O)cc1 (stereo not drawn) | inactive: 98%

Structure (SMILES) | GTP binding activity (% of control)
CCOC(=O)C1(CCCc2ccccc2)CCN(CC(O)CO)CC1 (stereo not drawn) | inconclusive: 99%
CN1CCN(c2ccc(Cl)cc2NC(=O)CCN2C(=O)c3ccccc3C2=O)CC1 | inactive: 101%
O=C(O)c1ccccc1C(=O)N1CCN(c2ccccc2)CC1 | inconclusive: 105%
C/C(CCC(=O)OC[C@H]1O[C@H](C#Cc2ccccc2)C=C[C@@H]1Oc1ccc(C)cc1)=N\O[C@@H](C)CN1CCCCc2nc(C)c(C)cc21 | inactive: 104%
O=C1NC(Cc2ccccc2)C(=O)N1Cc1cc([N+](=O)[O-])cc2c1OCOC2 (stereo not drawn) | inconclusive: 96%
Cc1cnc(NC(=O)CSc2nnc(C)s2)s1 | inconclusive: 106%
CCCN(CC1CC1)C(=S)Nc1ccc(Oc2ccccc2)cc1 | inactive: 102%
Cc1ccc(CNC(=O)CN2C(C)CCCC2C)cc1 (stereo not drawn) | inactive: 97%
COc1ccc(OC)c(C(C(=O)NCc2ccco2)N(C(=O)Cn2nnc3ccccc32)C2CC2)c1 (stereo not drawn) | active: 130% [activator]
N#C/C(=C/c1ccc(O)c([N+](=O)[O-])c1)C(=O)Nc1ccccc1 | active: 77%
O=C(Cc1ccccc1)NCC(=O)OCC(=O)c1cccc([N+](=O)[O-])c1 | inconclusive: 101%
O=C(NCC1CCCO1)C1CCN(C2CCN(C3CCCCCC3)CC2)CC1 (stereo not drawn) | inactive: 99%
O=C(CSc1ccc2nnc(-c3cccc(F)c3)n2n1)NCC1CCCO1 (stereo not drawn) | inconclusive: 108%
CCn1ncc(Br)c1C(=O)Nc1ccccc1OC | inconclusive: 100%
O=C(N/N=C/c1ccc(Cl)cc1Cl)C(=O)NC1CC1 | inactive: 100%
COc1cccc(C(=O)C2CCCN(C(=O)CCC3=NNC(=O)CC3)C2)c1 (stereo not drawn) | inconclusive: 100%
Cc1[nH]n2c(=O)c3c(nc2c1-c1ccccc1)CCC3 | inconclusive: 86%
COc1ccc(CNC(=O)CN(Cc2ccc(OC)cc2)C(=O)c2csnn2)cc1 | inactive: 98%
C=CCNC(=O)C1(c2ccccc2)CC1(Cl)Cl (stereo not drawn) | inactive: 106%
O=C(COC(=O)c1n[nH]c2ccccc12)NCc1ccccc1 | inconclusive: 108%
CCc1ccc(C(=O)OCC(=O)NCC(F)(F)F)cc1 | inactive: 98%
O=c1/c(=C/c2ccc(O)c([N+](=O)[O-])c2)sc2nc3ccccc3n12 | inconclusive: 90%
CCN1CCCc2cc(CN(CCN3CCOCC3)C(=S)Nc3cccc(Cl)c3)ccc21 | inactive: 102%
CCCCN(C(=S)NC(=O)c1ccccc1)c1c(N)n(Cc2ccccc2)c(=O)[nH]c1=O | inconclusive: 100%

Structure (SMILES) | GTP binding activity (% of control)
COc1ccc2c(C)nc(N/C(N)=N/S(=O)(=O)c3ccc(C)cc3)nc2c1 | active: 77%
CC(=O)Nc1ccc(C(=O)NNC(=O)c2cc([N+](=O)[O-])cc([N+](=O)[O-])c2)cc1 | inconclusive: 95%
CCOc1cc(C)c(S(=O)(=O)Nc2ccc3cn[nH]c3c2)cc1C | inconclusive: 108%
CC1CCCN(CCCNC(=O)CCn2nc(-c3ccccc3)ccc2=O)C1 (stereo not drawn) | inconclusive: 105%
CC(C)OC(=O)NCCOC(=O)Nc1cccc(Cl)c1 | inconclusive: 105%
CN(Cc1ccccc1)C(=O)Cn1c(=O)oc2cc(S(=O)(=O)NCc3ccccc3)ccc21 | inconclusive: 104%
CC1CC(C)CN(CC(O)COc2ccc3c(c2)CCC3)C1 (stereo not drawn) | inconclusive: 106%
Cc1ccccc1C(=O)Nc1ccc2c(C#N)c3nc4ccccc4nc3n2c1 | active: 76%
COc1cccc(OC)c1OCCCOc1ccc(C)cc1Br | inactive: 98%
O=C(O)c1ccc(Nc2nc(-c3cc4ccccc4oc3=O)cs2)cc1O | active: 79%
COc1ccccc1CNC(=O)c1csc2c1CCCC2 | inconclusive: 98%
O=C(Nc1ccc2nc(-c3cccs3)[nH]c2c1)c1cccs1 | active: 76%
O=c1nc2n(c3c1oc1ccccc13)Cc1ccccc1-2 | inconclusive: 96%
COc1ccc(S(=O)(=O)N(CCCN2CCCC2=O)Cc2cc3c(C)ccc(C)c3[nH]c2=O)cc1 | inconclusive: 92%
COCCNS(=O)(=O)c1cc(C)c(C)cc1C | inconclusive: 102%
Nc1c([N+](=O)[O-])cc(-c2cnc[nH]2)cc1[N+](=O)[O-] | inactive: 84%
C[C@@H]1C[C@H](O)c2cc(Cl)ccc2N1 | inconclusive: 106%
Cc1ccc(CN2CCN(CC(=O)NCc3ccc(Cl)cc3)C2=O)cc1 | inconclusive: 108%
O=C(Nn1cnc2ccccc2c1=O)c1ccc(F)cc1Cl | inconclusive: 94%
CCOC(=O)C1CCN(c2cc(C)nc3cc(-c4cccc(F)c4)nn23)CC1 | inconclusive: 90%
CN1c2ccccc2C(C)(C)C12CC(c1ccc(S(=O)(=O)N3CCCCC3)cc1)=NO2 (stereo not drawn) | inconclusive: 100%
Cn1c(=O)c2c(nc(N3CCc4ccccc4C3)n2C)n(C)c1=O | active: 69%
C/C(=N\N(c1ccccc1)c1ccccc1)c1ccco1 | inactive: 95%
COc1ccc(-c2nn(CCC(=O)O)cc2/C=C/C(=O)O)cc1[N+](=O)[O-] | inactive: 100%

Structure (SMILES) | GTP binding activity (% of control)
CC(NC(=O)C(=O)N/N=C/c1ccccc1)c1ccccc1 (stereo not drawn) | inconclusive: 113%
O=C(c1ccccc1NS(=O)(=O)c1cccc2cccnc12)N1CCOCC1 | inactive: 99%
CC1CC(C)CN(CCCNC(=O)Cc2c(C(=O)O)[nH]c3ccccc23)C1 (stereo not drawn) | inconclusive: 107%
Cc1cc2nc3c(=O)n(C4CCCCC4)c(=O)[nH]c3nc2cc1N | active: 74%
COC(=O)CC1C(=O)NCCN1Cc1cn(-c2ccc(C)cc2)nc1-c1cccc(C)c1 (stereo not drawn) | inactive: 95%
Cc1nn(C)c(Cl)c1CN1CCN(C2CCCC2)C(CCO)C1 (stereo not drawn) | inactive: 95%
COc1ccccc1C(C)NCC(=O)NCC(=O)Nc1ccc(F)c(F)c1F (stereo not drawn) | inconclusive: 96%
CC(=O)Oc1ccc2c(c1)cc(C)n2C | inactive: 99%
CC(NC(=O)COC(=O)CSCc1ccccc1)c1ccccc1 (stereo not drawn) | inconclusive: 94%
Cc1ccsc1/C=C(\C#N)C(=O)NCc1ccco1 | inconclusive: 106%
c1ccc(-c2nc3nc4ccccc4nc3n2Cc2ccco2)cc1 | inconclusive: 103%
O=C(/C=C/c1ccc2c(c1)OCO2)c1ccco1 | inactive: 100%
CCN(CC)S(=O)(=O)c1cccc(C(=O)N2CCCCC2)c1 | inconclusive: 88%
CN1C(=O)C2(N=c3ccccc3=N2)c2ccccc21 | inconclusive: 100%
Cc1ccc(-n2cc(CNC(C)Cn3cncn3)c(-c3ccc(F)cc3)n2)cc1 (stereo not drawn) | inactive: 100%
CCCC1=NN2C(=N)/C(=C\c3cc(C)n(-c4cc(C)cc(C)c4)c3C)C(=O)N=C2S1 | inconclusive: 83%
CC1CCN(c2ccc(N3C(=O)C4CCCCC4C3=O)cc2[N+](=O)[O-])CC1 (stereo not drawn) | inactive: 101%
COc1ccc(C(=O)OCC(=O)c2c(N)n(C)c(=O)n(C)c2=O)cc1OC | inconclusive: 91%
CC(=O)Nc1c(Nc2ccccc2)c2ccccc2oc1=O | inconclusive: 90%
C=C(C)Cn1c(SCC(=O)N/N=C/c2c(O)ccc3ccccc23)nc2ccccc2c1=O | inconclusive: 95%
CCN(CC)S(=O)(=O)c1ccc(C)c(NC(=O)Cn2cnc3cc([N+](=O)[O-])ccc3c2=O)c1 | inconclusive: 91%

From PubChem BioAssay AID757 (NMMLSC, 2007)
